# Assay results as given in PubChem BioAssay AID1656 (Sanford-Burnham Center for Chemical Genomics, 2009).
# The other results are listed elsewhere or left out. The main result of the screen is listed elsewhere. These columns were measured beside it and carry no call. Most of these compounds were active or inconclusive in the main read-out, so they are no random draw.
# Assay: oleate-induced lipid droplet accumulation in AML12 cells – imaging, high-throughput imaging, BODIPY stain, primary screen (AID 1656);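 note: cells counted across two imaged fields per well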
# Details: AML12 mouse hepatocytes, oleate lipid droplets, measured here: cell count, cytotoxicity flag, at 6.5 µM
# How it was run: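 Material: mouse AML12 hepatocyte cell line, fixed after treatment; Timing: compound with oleate, overnight; Technique: high-content imaging of BODIPY-stained droplets and DAPI nuclei; Probe or stimulus: oleate, 100 µM final; Dosing: compound at 6.5 µM only.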
row,Compound,cell count [cells]
1,CCc1cc(C(=O)N2CCc3c([nH]c4ccccc34)C2c2ccc(OC)cc2F)no1 (stereo not drawn),650
2,COC(=O)C1=C(C)N=c2s/c(=C3\C(=O)Nc4ccccc43)c(=O)n2C1c1ccccc1 (stereo not drawn),700
3,Cc1cc2c(cc1S(=O)(=O)Nc1cccc(C)c1C)n(C)c(=O)c(=O)n2C,782
4,Cc1cc2c(cc1C)N(C(=O)CSC1=NCCS1)C(C)(C)c1ssc(=S)c1-2,621
5,CCOc1ccc(CCNC(=O)CCCn2c(=O)c3cccn3c3cccnc32)cc1OCC,762
6,Cc1ccc(NC(=O)COC(=O)C(NS(=O)(=O)c2ccc(Cl)cc2)C(C)O)cc1C (stereo not drawn),233
7,CCN(CC(=O)Nc1c(F)cccc1F)C(=O)CCCc1c[nH]c2ccccc12,838
8,O=C(NCCc1cccnc1)c1cc(COc2ccc(F)cc2F)on1,733
9,COc1ccccc1/C=C/C(=C1/C(=O)N(c2ccccc2)N=C1C)c1ccc(C)cc1,502
10,CC(=O)Nc1cccc(OCC(=O)NC(C)c2ccc3ccccc3c2)c1 (stereo not drawn),805
11,COc1ccc(CN(C)C(=O)CNC(=O)Cc2cccc3ccccc23)c(OC)c1OC,666
12,O=C(NCCO)c1cc2ccccc2cc1O,790
13,CC(C)C[C@H]1C(=O)N2CCC[C@H]2[C@]2(O)O[C@](NC(=O)[C@@H]3C=C4c5cccc6[nH]c(Br)c(c56)CC4N(C)C3)(C(C)C)C(=O)N12 (stereo partly drawn),727
14,Cc1ccc(C(=O)CC2(O)C(=O)N(CCc3ccccc3)c3ccc(Br)cc32)o1 (stereo not drawn),750
15,CC1=C/C(=N\Nc2ccccc2[N+](=O)[O-])CC(C)(C)C1,706
16,COc1ccc(OC)c(NC(=O)CCCNC(=O)c2ccc(Cl)cc2)c1,796
17,COc1ccc(C(=O)CCC(=O)NCCc2c[nH]c3ccccc23)cc1OC,820
18,O=C(c1ccc(Cl)cc1)c1cc([N+](=O)[O-])ccc1N1CCOCC1,242
19,Cc1cccc(NC(=O)[C@H](C)NC(=O)[C@@H]2Cc3ccccc3CN2C(=O)OC(C)(C)C)c1,741
20,COC(=O)c1ccc2c(c1)C(C)(C)C(/C=C/c1ccc(O)cc1)=[N+]2C,480
21,CCc1ccccc1NS(=O)(=O)c1cc2c(cc1C)n(C)c(=O)c(=O)n2C,753
22,Cc1cc(N2CCN(C)CC2)n2nc(-c3ccc(Cl)cc3)nc2n1,711
23,COc1ccccc1-c1nnc2sc(-c3ccc(N(C)C)cc3)nn12,126
